# Test results reported in PubChem BioAssay AID1347428 (National Center for Advancing Translational Sciences (NCATS), 2020).
# In all, about 91,000 compounds went through this assay and about 290 (0.32%) were called active. The shares of active, inactive and inconclusive entries below differ from those in the screen. The call rests on the fitted dose curve; in most records, active means well fitted inhibition curve with a large enough effect; inconclusive means small, poorly fitted or top-dose-only effect; inactive means no such curve, though single readings can be large or run the other way. Potencies of inconclusive entries are doubtful fits and often do not repeat.
# Target: Single-stranded DNA cytosine deaminase (Homo sapiens) (UniProt Q9GZX7)
# Chain of UniProt Q9GZX7 (Q9GZX7 whole entry, looked up): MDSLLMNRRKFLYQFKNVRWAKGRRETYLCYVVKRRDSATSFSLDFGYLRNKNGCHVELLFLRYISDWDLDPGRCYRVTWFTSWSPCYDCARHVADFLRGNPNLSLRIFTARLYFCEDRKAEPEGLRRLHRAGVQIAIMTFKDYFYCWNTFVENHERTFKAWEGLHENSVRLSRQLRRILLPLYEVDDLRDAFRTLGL
# Test: Primary qHTS assay for inhibitors of Activation Induced Cytidine Deaminase (AID): AID signal; further: nearly all actives have a fitted effect of over 25% in size
# Settings: AID deamination FRET fluorescence, UDG-coupled, 4 h; activity change, negative = inhibition: at 115 µM (top of the series)
# On the % scale 0 is the no-effect control and ±100 the full control effect; potency means the concentration at half of the fitted maximal effect; tags describe the fitted curve by direction and shape.
Compound,Potency,"activity change, negative = inhibition"
COc1cc2c(=O)c(S(=O)(=O)c3ccc(C(C)C)cc3)cn(Cc3ccccc3C)c2cc1OC,"inconclusive: 20 µM [inhibitor, full curve, poor fit]",
CCOC(=O)c1c(C)c(-c2ccccc2)n(CC(=O)NCc2ccccc2)c1C,"inconclusive: 2.82 µM [inhibitor, full curve, poor fit]",
CC(C)(C)OC(=O)N1CCC(c2c(C(=O)N3CCN(c4ccccn4)CC3)cnn2-c2cccc(F)c2)CC1,"inconclusive: 100 µM [inhibitor, partial curve, poor fit]",
Cc1ccsc1CNC(=O)/C=C/c1ccncc1,,inactive: -4.17%
COc1cccc(NC(=O)CN2C(=O)CC(c3ccco3)Sc3ccccc32)c1 (stereo not drawn),"inconclusive: 20 µM [inhibitor, partial curve, poor fit]",
CC(=O)Nc1ccc(S(=O)(=O)NCC2CCC(C(=O)NCc3ccccc3)CC2)cc1 (stereo not drawn),,inactive: 6.7%
CCc1ccc(NC(=O)N2CCN(Cc3nc4ccc(C)cc4o3)CC2)cc1,"inconclusive: 10 µM [inhibitor, full curve]",
COc1cccc2c1OC1(CCN(C(C)=O)CC1)N1N=C(c3ccc(OC(F)F)cc3)CC21 (stereo not drawn),,inactive: -11.7%
CC1=Nc2cc(C(=O)NCc3ccc(C)cc3)ccc2Sc2ccc(Cl)cc21,"inconclusive: 39.8 µM [inhibitor, single point]",
CCN1CCC(N(Cc2cccc(OC)c2)C(=O)Nc2cccc(C)c2C)CC1,"inconclusive: 89.1 µM [inhibitor, single point]",
CCn1nnc(NC(=O)c2cc3ccccc3cc2OC)n1,,inactive: -11.7%
Cc1ccc(NC(=O)COc2ccc(-c3nn(C)c(=O)c4ccccc34)cc2)cc1,"inconclusive: 14.1 µM [inhibitor, partial curve, poor fit]",
CS(=O)(=O)N1CCc2cc(C(=O)Nc3ccc(Cl)c(C(F)(F)F)c3)ccc21,"inconclusive: 89.1 µM [inhibitor, partial curve, poor fit]",
Cc1ncc(CO)c2c1Oc1nc(-c3ccccc3)nc(SCC(=O)N3CCCCC3)c1C2,"inconclusive: 89.1 µM [inhibitor, partial curve, poor fit]",
C=CCNCc1ccc(CC)cc1,,inactive: -3.27%
O=C(/C=C/c1ccc(Br)cc1)c1cccc(O)c1,,inactive: -16.3%
COc1ccc(CCNC(=O)c2ccc3c(c2)N=C(C)c2cc(C)ccc2S3)cc1OC,"inconclusive: 3.16 µM [inhibitor, full curve, poor fit]",
O=C(OCC(=O)c1c[nH]c2ccccc12)c1ccc([N+](=O)[O-])cc1Cl,,inactive: 16%
COc1ccccc1C(=O)NCCSc1c(C)[nH]c2ccccc12,"inconclusive: 44.7 µM [inhibitor, partial curve, poor fit]",
CC(=O)c1cccc(NC(=O)[C@H](Cc2ccccc2)N2Cc3ccccc3C2=O)c1,"inconclusive: 50.1 µM [inhibitor, partial curve, poor fit]",
Cn1c(Sc2ncnc3scc(-c4ccccc4)c23)nnc1-c1ccccc1F,"inconclusive: 50.1 µM [inhibitor, partial curve, poor fit]",

Compound,Potency,"activity change, negative = inhibition"
Cc1ccc(CCNC(=O)c2ccc3c(c2)N(Cc2ccccc2F)C(=O)c2ccccc2S3=O)cc1 (stereo not drawn),"inconclusive: 2.82 µM [inhibitor, full curve, poor fit]",
COc1ccc(-c2cc3ncc(C(=O)c4cc([N+](=O)[O-])ccc4O)cn3n2)cc1,"inconclusive: 89.1 µM [inhibitor, partial curve, poor fit]",
O=C(c1ccc2c(c1)N(Cc1c(F)cccc1Cl)C(=O)c1ccccc1S2)N1CCCC1,"inconclusive: 50.1 µM [inhibitor, partial curve, poor fit]",
Cc1ccc(Cl)cc1-n1ncc2c(Nc3ccc4c(c3)OCCO4)ncnc21,,inactive: 256%
O=S(=O)(NCc1nc2ccccc2s1)c1cccs1,,inactive: -4.27%
COc1ccc(CNC(=O)c2cc3cccc4c3n2CC(C)S4)cc1OC (stereo not drawn),"inconclusive: 70.8 µM [inhibitor, partial curve]",
Cc1ccc(CNS(=O)(=O)c2ccc3[nH]c4c(c3c2)CCCCC4)cc1,,inactive: 10% [at 57.5 µM]
Cc1ccc(N(CC(=O)NCCSc2ccccc2)S(=O)(=O)c2ccc(F)cc2)cc1,"inconclusive: 44.7 µM [inhibitor, partial curve, poor fit]",
COc1ccc(C)cc1-n1nnc(S(=O)(=O)c2ccc(C)cc2)c1C,"inconclusive: 39.8 µM [inhibitor, single point]",
COc1ccc(CNc2oc(/C=C/c3cc(OC)c(OC)c(OC)c3)nc2C#N)cc1,"inconclusive: 89.1 µM [inhibitor, single point]",
Cc1cc(C)c(NC(=O)CSC2=Nc3ccccc3C3=NC(CC(=O)NCc4cccs4)C(=O)N23)c(C)c1 (stereo not drawn),"inconclusive: 25.1 µM [inhibitor, partial curve, poor fit]",
CC(C)c1ccc2c(c1)c(SC(C)(C)C)c(CC(C)(C)C(=O)O)n2Cc1ccc(Cl)cc1,active: 79.4 µM,
O=C(CN1c2ccc(Br)cc2-c2ccccc2S1(=O)=O)N1CCCCC1,"inconclusive: 25.1 µM [inhibitor, full curve, poor fit]",
COc1ccc(C(=O)NCCc2csc(-c3ccc(Cl)cc3)n2)c(OC)c1,"inconclusive: 20 µM [inhibitor, full curve, poor fit]",
Oc1ccc(NCc2ccccc2OCc2ccccc2)cc1,active: 31.6 µM,
CN1C(=O)c2ccccc2Sc2ccc(NC(=O)N3CCN(c4ccc(F)cc4)CC3)cc21,"inconclusive: 17.8 µM [inhibitor, full curve, poor fit]",
COc1cccc(C2CC(=O)Nc3nc(N)sc32)c1OCC(C)C (stereo not drawn),active: 39.8 µM,
Cc1ccc2[nH]cc(C(c3ccccc3)c3ccc(Cl)s3)c2c1 (stereo not drawn),,inactive: 137%
CCN(CC)CCNC(=O)c1cc2c(-c3cccc(OC)c3)nn(C)c2s1,"inconclusive: 89.1 µM [inhibitor, single point]",
O=C(Nc1ccc(F)c(F)c1)C(c1ccccc1)N1Cc2ccccc2C1=O (stereo not drawn),"inconclusive: 63.1 µM [inhibitor, partial curve, poor fit]",
COc1ccccc1-c1nn(CCC(=O)Nc2ccccc2)c2nc(C)cc(C)c12,"inconclusive: 56.2 µM [inhibitor, partial curve, poor fit]",

Compound,Potency,"activity change, negative = inhibition"
CCOC(=O)c1c(C)[nH]c(C)c1S(=O)(=O)N1CCCC(C(=O)N2CCN(c3cccc(Cl)c3)CC2)C1 (stereo not drawn),"inconclusive: 50.1 µM [inhibitor, partial curve, poor fit]",
COc1ccccc1C(=O)Nc1ccc(-c2cc(C(F)(F)F)nn2-c2ccccc2)cc1,"inconclusive: 56.2 µM [inhibitor, partial curve, poor fit]",
CC(=O)N1CCN(c2oc(/C=C/c3ccccc3Cl)nc2C#N)CC1,,inactive: -16.7%
CCCOc1ccc(C(=O)/C=C/c2cc(OC)c(OC)c(OC)c2)cc1,,inactive: -20.5%
CC1CN(C(=O)N2CCC(C(=O)NCc3ccccc3F)CC2)c2cc(Cl)ccc2O1 (stereo not drawn),"inconclusive: 50.1 µM [inhibitor, partial curve, poor fit]",
Cc1ccccc1OCCSc1nnc(-c2cccs2)o1,"inconclusive: 39.8 µM [inhibitor, single point]",
Cc1cccc(Oc2nc(-c3ccncc3)nc3ccccc23)c1C,"inconclusive: 50.1 µM [inhibitor, partial curve]",
Oc1cccc2c(N=Cc3ccc(F)c(F)c3)cccc12,,inactive: -13.2%
Cc1ccc(Cl)cc1NC(=O)CCn1cnc2ccccc2c1=O,"inconclusive: 3.55 µM [inhibitor, partial curve, poor fit]",
O=c1c2nccnc2nc(SCc2cccc(Cl)c2)n1Cc1ccc2c(c1)OCO2,"inconclusive: 22.4 µM [inhibitor, partial curve, poor fit]",
O=C(COc1ccccc1)NCCc1csc(-c2ccc(Cl)cc2)n1,,inactive: -1.14%
C/C(=N/Nc1ccc(S(=O)(=O)Nc2ccccc2C(=O)O)cc1[N+](=O)[O-])c1ccco1,"inconclusive: 56.2 µM [inhibitor, partial curve, poor fit]",
Cc1cccc(N(CC(O)Cn2c3ccccc3c3ccccc32)S(=O)(=O)c2ccc(F)cc2)c1 (stereo not drawn),"inconclusive: 22.4 µM [inhibitor, full curve, poor fit]",
O=C(NCCc1ccccc1)c1ccc2c(c1)N(Cc1ccc(F)cc1)C(=O)c1ccccc1S2(=O)=O,"inconclusive: 44.7 µM [inhibitor, partial curve, poor fit]",
COc1ccc(NC(=O)Cn2nnc(C(=O)NCCc3ccccc3)c2N)cc1,,inactive: -6.76%
CN(CCCNC(=O)c1cc2c(Cl)nc3ccccc3c2s1)Cc1ccccc1,active: 22.4 µM,
Cc1ccc2onc(CC(=O)N3CCN(c4ccc(F)cc4)CC3)c2c1,"inconclusive: 89.1 µM [inhibitor, single point]",
Cc1ccccc1S(=O)Cc1ccc(C(=O)N2CCN(c3cccc(C)c3C)CC2)o1 (stereo not drawn),"inconclusive: 79.4 µM [inhibitor, single point]",
CCN(CC)S(=O)(=O)c1ccc(NC(=O)NCc2noc3ccc(C)cc23)cc1,"inconclusive: 28.2 µM [inhibitor, full curve, poor fit]",
COc1ccc(-n2ncc3c(NC(C)(C)CO)ncnc32)cc1,"inconclusive: 89.1 µM [inhibitor, single point]",
CCSc1nnc2n(CC)c(=O)c3c(n12)-c1ccccc1CC31CCCCC1,"inconclusive: 50.1 µM [inhibitor, partial curve, poor fit]",
